Test results: PubChem BioAssay AID1030 (National Center for Advancing Translational Sciences (NCATS), 2008)
Hit rate of the full screen: of about 220,000 compounds, about 16,000 (7.3%) were called active. The shares of active, inactive and inconclusive entries below differ from those in the screen. Calls follow the shape of the dose curve; as a rule, active = well fitted inhibition curve with a large enough effect (not every such curve was filed as active); inconclusive = small, poorly fitted or top-dose-only effect, or another doubt; inactive = no such curve, though single readings can be large or run the other way. A potency beside an inconclusive call is a rough fit, not a confirmed value.

Molecular target: Aldehyde dehydrogenase 1A1 (Homo sapiens) (UniProt P00352)
UniProt P00352, sequence (P00352 whole entry, looked up): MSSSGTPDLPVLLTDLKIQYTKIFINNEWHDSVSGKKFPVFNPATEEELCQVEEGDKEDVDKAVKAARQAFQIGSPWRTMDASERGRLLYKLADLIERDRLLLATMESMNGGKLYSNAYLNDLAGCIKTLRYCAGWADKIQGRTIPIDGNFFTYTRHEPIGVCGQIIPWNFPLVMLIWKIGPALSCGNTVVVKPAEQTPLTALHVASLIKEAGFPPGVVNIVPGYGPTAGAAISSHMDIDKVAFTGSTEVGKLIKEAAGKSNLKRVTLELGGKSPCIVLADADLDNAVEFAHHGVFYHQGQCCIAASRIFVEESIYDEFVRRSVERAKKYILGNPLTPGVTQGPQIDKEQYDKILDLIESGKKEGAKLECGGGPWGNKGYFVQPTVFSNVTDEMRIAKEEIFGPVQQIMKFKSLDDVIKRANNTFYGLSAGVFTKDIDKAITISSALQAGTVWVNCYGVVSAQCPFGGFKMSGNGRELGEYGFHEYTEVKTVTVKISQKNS
Assay: qHTS Assay for Inhibitors of Aldehyde Dehydrogenase 1 (ALDH1A1)
Conditions: Purified ALDH1A1, NADH fluorescence, propionaldehyde substrate; series mostly up to 75.3 µM
Potency is read from the fitted curve at half-maximal effect; tags tell the direction and shape of the fitted curve.

Potency, active:
Cc1c(C(=O)N2CCN(c3ccccn3)CC2)oc2ccccc12 14.1 µM
Cc1ccc(-n2c(Cl)c(Cl)nc(Cl)c2=O)cc1 0.631 µM
COc1ccc(S(=O)(=O)NCC2CCCN(C(=O)C3CCCC3)C2)cc1 (stereo unspecified) 3.55 µM
CC(c1ccccc1)C1C(C#N)=C(N)SC(N)=C1C#N (stereo unspecified) 20 µM
Fc1ccccc1N1CCN(C(c2ccncc2)c2nnnn2C2CCCC2)CC1 (stereo unspecified) 25.1 µM
Cc1ccc(C(NC(=O)N2CC(C)OC(C)C2)C(Cl)Cl)cc1F (stereo unspecified) 10 µM

Potency, inconclusive:
O=C1N=c2ccccc2=C1c1sc(=O)[nH]c1O 39.8 µM [inhibitor, single point]
CC(C)CNc1oc(-c2ccco2)nc1C#N 31.6 µM [inhibitor, partial curve]
CCC(=O)Nc1ccccc1C(=O)OCC(=O)Nc1ccc(S(N)(=O)=O)cc1 39.8 µM [inhibitor, single point]
O=c1[nH]c(-c2ccccc2Cl)nc2c1sc(=S)n2-c1ccccc1 25.1 µM [inhibitor, single point]
Cn1cc(P(=O)(N2CCOCC2)N2CCOCC2)cc1P(=S)(N1CCOCC1)N1CCOCC1 39.8 µM [inhibitor, single point]
CCOC(=O)c1sc(NC(=O)c2cccc(S(=O)(=O)N3CCN(C)CC3)c2)cc1C 28.2 µM [inhibitor, partial curve]
CC(C)(C)c1ccc(OCC(=O)Nc2ccc3c4c(cccc24)C(=O)NC3=O)cc1 35.5 µM [inhibitor, partial curve]
CSc1sc(-c2ccnc(=S)[nH]2)c(-c2ccccc2)c1C#N 12.6 µM [inhibitor, partial curve]
O=C(NCc1ccc(F)cc1)c1cc2sccc2n1Cc1ccc(F)cc1 25.1 µM [inhibitor, single point]
Cc1cccc(-n2c3nc(=O)[nH]c(=O)c-3cc3c(C)nn(-c4ccccc4)c32)c1C 17.8 µM [inhibitor, partial curve]
CC(=O)Nc1cccc(Oc2ncnc3scc(-c4ccc(C(C)C)cc4)c23)c1 20 µM [inhibitor, partial curve]
Cc1cccc2cc(C(c3nnnn3C3CCCC3)N3CCOCC3)c(=O)[nH]c12 (stereo unspecified) 39.8 µM [inhibitor, single point]
COc1ccc(-n2ncc3c(NCC(C)C)ncnc32)cc1 37.7 µM [inhibitor, single point]
O=C(CSC1=N/C(=C/c2ccco2)C(=O)N1c1ccc(OC(F)F)cc1)NC1CCS(=O)(=O)C1 (stereo unspecified) 39.8 µM [inhibitor, single point]
CCOc1ccccc1Nc1ccc(C(=O)O)cc1NC(C)=O 39.8 µM [inhibitor, single point]
CCOC(=O)COc1c(OC)cc(Cl)cc1C1Nc2ccccc2C(=O)N1c1ccccc1 (stereo unspecified) 31.6 µM [inhibitor, single point]
COc1ccc(-c2nnc(Nc3ccc(CC(N)=O)cc3)c3ccccc23)cc1 23.8 µM [inhibitor, partial curve]
CN(C)c1ncc2ncc(=O)n(CCc3ccccc3)c2n1 35.5 µM [inhibitor, single point]
CC(=O)C1(C)OC(N)=C(C#N)C(c2ccccc2)C1(C#N)C#N (stereo unspecified) 39.8 µM [inhibitor, single point]
Cc1ccc(-c2nc3cc(C)ccc3o2)cc1 35.5 µM [inhibitor, single point]
CCn1cc(C(=O)OCC(=O)N2C(C)CCCC2C)c(=O)c2ccc(C)nc21 (stereo unspecified) 39.8 µM [inhibitor, single point]
CCn1cc(C(=O)NCCc2ccccc2)c(=O)c2cc(F)c(N3CCN(C)CC3)cc21 14.1 µM [inhibitor, partial curve]
COc1cccc(Nc2nnc(SCn3nnc4ccccc4c3=O)s2)c1 22.4 µM [inhibitor, partial curve]
C=CCNC(=O)c1ccc(C2SCC(=O)N2Cc2ccco2)cc1 (stereo unspecified) 28.2 µM [inhibitor, single point]

Potency, inactive:
Cc1c(NC(=O)c2cc(=O)[nH]c(=O)[nH]2)c(=O)n(-c2ccccc2)n1C
CCOC(=O)C1=C(C)N(C)C(=O)NC1c1ccc(C)s1 (stereo unspecified)
Cc1cnc(CNc2ncncc2-c2ccccc2CN(C)C)cn1
O=C(Nc1ccccc1-c1ccccc1)C12CC3CC(CC(C3)C1)C2
COc1ccc(C)cc1N(CC(=O)N/N=C/c1ccc2c(c1)OCO2)S(C)(=O)=O
O=S(=O)(c1cccc(-c2nnco2)c1)N1CCCC1
CCOC(=O)N1CCN(Cc2nc(-c3cccs3)no2)CC1
N=C(CC(O)COc1ccccc1-c1ccccc1)N1CCCCC1 (stereo unspecified)
CCOC(=O)C(=NC1CCCCC1)NNc1cccc(C(F)(F)F)c1
Clc1cnc(N/N=C/c2ccco2)c(Cl)c1
COc1ccc(NC(=S)NC(=O)c2csnn2)cc1
Cc1ccc(C)c(NC(=O)CCC(=O)NNC(=S)Nc2ccccc2)c1
CCOc1ccc(CC2CC(=O)NC2=O)cc1 (stereo unspecified)
Cc1cc(Oc2ccc(=O)n(C)n2)nc(SCc2ccccc2)n1
CCOc1ccc2nc(-c3ccccc3)nc(SCC(=O)Nc3ncc(C)s3)c2c1
CC(/C=C/c1ccc(N(C)C)cc1)=N\N=C(/N)SC1CC(=O)N(c2ccc(C(=O)O)cc2)C1=O (stereo unspecified)
O=C(CC(O)(c1ccccc1)C(F)(F)F)c1cccs1 (stereo unspecified)
CCCCNC(=O)NS(=O)(=O)c1ccc(C(=O)OC)o1
COC(=O)c1ccc(NC(=O)Nc2ccc(F)cc2)cc1
O=C(/C=C\Nc1ccc(Cl)cn1)c1ccc(Br)cc1
O=C(NCCCN1CCOCC1)c1cc(Cl)ccc1[N+](=O)[O-]
